Reference: publication PMC4256259
These are yes or no findings as the source states them, for the method shown. Binding seen in cells or lysates may run through a third protein. Where a sequence is shown, tags or fusion partners need not be part of it.

Tests used:
Experiment in all cases: co-IP; GFP-tagged baits purified with GFP-Trap from yeast cell lysates in IP buffer (20 mM Tris-HCl pH 7.5, 5 mM MgCl2, 150 mM potassium acetate, 1 mM DTT, 0.2% Triton X-100); no RNase A; endogenous Rrp12 detected by Western blot
Conditions in all cases: remark: other sources report otherwise
[1] = target: T1, Kre35-GFP (S. cerevisiae), P53145
T1 chain: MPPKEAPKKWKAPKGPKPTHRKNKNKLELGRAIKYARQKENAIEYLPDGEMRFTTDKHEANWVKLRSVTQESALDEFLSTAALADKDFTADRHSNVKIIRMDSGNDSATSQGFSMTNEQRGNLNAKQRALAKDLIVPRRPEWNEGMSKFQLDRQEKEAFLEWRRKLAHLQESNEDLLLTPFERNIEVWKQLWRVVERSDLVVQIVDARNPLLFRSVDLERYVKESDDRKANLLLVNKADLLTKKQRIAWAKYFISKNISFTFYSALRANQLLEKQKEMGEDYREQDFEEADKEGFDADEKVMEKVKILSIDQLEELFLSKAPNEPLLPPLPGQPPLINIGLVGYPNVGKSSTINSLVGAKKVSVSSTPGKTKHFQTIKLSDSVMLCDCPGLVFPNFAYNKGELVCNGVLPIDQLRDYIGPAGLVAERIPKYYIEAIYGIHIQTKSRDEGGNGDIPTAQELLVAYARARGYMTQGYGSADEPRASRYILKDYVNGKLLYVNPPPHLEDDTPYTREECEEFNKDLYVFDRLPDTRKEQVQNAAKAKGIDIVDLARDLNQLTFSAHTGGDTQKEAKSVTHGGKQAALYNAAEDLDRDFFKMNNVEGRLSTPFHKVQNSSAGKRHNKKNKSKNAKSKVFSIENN

[2] = target: T2, Rio2-GFP (S. cerevisiae), P40160
T2 chain: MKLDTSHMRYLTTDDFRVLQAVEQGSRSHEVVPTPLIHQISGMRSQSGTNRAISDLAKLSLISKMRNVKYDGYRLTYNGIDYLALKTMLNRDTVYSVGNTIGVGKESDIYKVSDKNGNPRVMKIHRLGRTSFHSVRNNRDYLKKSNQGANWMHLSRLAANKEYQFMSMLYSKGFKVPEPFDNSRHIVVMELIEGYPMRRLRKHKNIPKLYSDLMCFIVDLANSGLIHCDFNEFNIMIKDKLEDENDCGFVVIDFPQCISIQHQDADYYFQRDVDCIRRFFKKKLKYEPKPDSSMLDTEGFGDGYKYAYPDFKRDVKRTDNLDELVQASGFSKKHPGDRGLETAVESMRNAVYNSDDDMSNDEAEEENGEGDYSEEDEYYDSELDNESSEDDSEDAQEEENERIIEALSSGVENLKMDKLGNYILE

[3] = target: T3, Nop7-GFP (S. cerevisiae), P53261
T3 chain: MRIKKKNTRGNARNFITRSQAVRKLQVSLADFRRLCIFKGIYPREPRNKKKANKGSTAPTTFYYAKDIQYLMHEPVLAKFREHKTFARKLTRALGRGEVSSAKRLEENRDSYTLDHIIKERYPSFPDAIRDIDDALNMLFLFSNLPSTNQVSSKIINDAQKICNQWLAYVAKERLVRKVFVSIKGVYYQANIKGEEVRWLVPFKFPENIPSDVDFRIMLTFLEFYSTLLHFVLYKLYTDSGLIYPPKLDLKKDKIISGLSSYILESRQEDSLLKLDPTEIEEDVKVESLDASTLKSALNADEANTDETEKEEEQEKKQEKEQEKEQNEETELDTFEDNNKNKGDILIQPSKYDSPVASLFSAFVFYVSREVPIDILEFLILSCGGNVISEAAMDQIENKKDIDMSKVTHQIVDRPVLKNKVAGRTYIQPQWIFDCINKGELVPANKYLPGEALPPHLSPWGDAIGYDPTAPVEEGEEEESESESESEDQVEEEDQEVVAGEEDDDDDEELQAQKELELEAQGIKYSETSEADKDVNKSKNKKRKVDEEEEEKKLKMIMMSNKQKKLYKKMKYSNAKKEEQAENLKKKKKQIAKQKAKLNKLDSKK

[4] = target: T4, Arx1-GFP (S. cerevisiae), Q03862
T4 chain: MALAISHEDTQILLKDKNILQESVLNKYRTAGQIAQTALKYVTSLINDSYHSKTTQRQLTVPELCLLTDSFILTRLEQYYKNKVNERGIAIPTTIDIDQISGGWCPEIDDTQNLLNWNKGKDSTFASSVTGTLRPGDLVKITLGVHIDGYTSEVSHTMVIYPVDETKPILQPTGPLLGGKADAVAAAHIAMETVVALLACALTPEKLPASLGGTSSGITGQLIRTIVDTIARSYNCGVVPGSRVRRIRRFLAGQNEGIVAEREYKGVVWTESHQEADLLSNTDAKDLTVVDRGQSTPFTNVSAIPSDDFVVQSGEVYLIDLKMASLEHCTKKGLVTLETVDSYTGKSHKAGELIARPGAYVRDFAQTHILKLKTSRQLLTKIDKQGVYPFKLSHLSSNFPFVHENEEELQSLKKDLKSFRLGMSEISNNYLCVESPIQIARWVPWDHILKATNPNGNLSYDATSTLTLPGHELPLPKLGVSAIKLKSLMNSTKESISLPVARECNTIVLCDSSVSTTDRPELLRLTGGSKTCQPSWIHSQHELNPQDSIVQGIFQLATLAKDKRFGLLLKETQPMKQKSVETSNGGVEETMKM

Measured: binding

B1: Rrp12 (endogenous), Q12754 1-1228 (protein)
chain: MDQDKVAFLLELEDKLAKIRSQVNSKLENQKHIAIILTAVEENIAGQATNDVSKNIVNYIISFMSLLDQAVDPSTHEIKDIQLASSSTYLLDLIFHYSPKVLLRSKFSEILTKIAPCITAEKANAPLIRAAIGCLESLLIAQDAQAWNNTYDLNVTPKRGLQGILELSLDVRPKVRKRALDAVHAVLLNPPVAPTAEHVAAVFVADFCDKQLAGILNDLSNLSNKQLKAQKTKEDINASVMRSLRLITSVVSTGQWPSSQIEPLCDVLLGVTKSSEQYLVSASFECFESMFKTMAETTISSGLAENKYLRVLDTIFALKPSNVDTLLTKSWIAVVIKGMSTYATHQPLKALRKIPGVFHIMCTYLASETPEVYQAASQCLISILSESVKDDLLLYTPSVDEKVFKNVDEIISQIAKTFIDFLSIRYSHCSREILKILVAAFNKFRYRSNPHFLKSLKIVDTWRVNEEQFMDLRNEIELVIGASISAMGPEMILAEAPLNLDNPSSERPGRAWLLPLIRDYTKNANLATFQNELAPYIKSFQSKFDKVPEESIQLRVFQTIVDQIWSTLPRFCELPMDLRESFTDEFASELSSLLYSEVELRTTICHALKVLAESNVSYAEESSSHNVLLLQRFPISEAQKNIEYLSTKSTNLLAVLFNVYTQTTPNARSYILETIDQYLKITSKEDLEKTFNNVCGLLKNSMNEESSGNVNKEKKKPQLTATLLDLIICMITYLPVSSYSALFSMFSLTVNSADALIQKRAYRIITKLSELKSGSTAVAQFISDIENVMVDSASSVQTSAKAARLTAIKTIVELLPLDHLDFIVRTVAEVILSTKDVNEKSRETAFDTLICMGRKMNEPNGIIKLFQIPGYDPTTPDQSSSISEFFKIISAGLIGESQHMVSSSITGYACLVFEFKNELDSGILMDIYDTIELYLTSNSREIVKSAIGFTKVCVLGLPEELMRPKVPELLLKLLRWSHEHTGHFKAKVKHIIERLIRRFGYDYIEANFPEEDRRLLTNIRKMRNRNKRKDEEVTTGVSDVAATKGSRFMSAFDEAVYGSDEENDNGSDQEENVAGGKMKNGAKQFIVESGDNPLDLLDSQTLAHISSTRPKKFNKNQNRARFNDDAFNFDSEGKLVVKGQPKPSTNVDDPLSAVTSGINAYLEAVKSGPVRGQRNKLKFRKNGKDSDEFGDDDDGEKDSRLMRGRVNQGNKIGKHNKKGPKFKSRKKL
no binding: all assays above
